# The campaign covered roughly 330,000 compounds. About 1,700 (0.52%) were called active. The shares of active, inactive and inconclusive entries below differ from those in the screen. Calls come from the whole dose curve; as a rule, active = well fitted inhibition curve with a large enough effect; inconclusive = small, poorly fitted or top-dose-only effect; inactive = no such curve, though single readings can be large or run the other way. Potencies beside an inconclusive call are fits to weak or partial responses and may not hold up.
# Target: Beta-lactamase (Escherichia coli (strain K12)) (UniProt P00811)
# UniProt P00811, sequence (P00811 whole entry, looked up): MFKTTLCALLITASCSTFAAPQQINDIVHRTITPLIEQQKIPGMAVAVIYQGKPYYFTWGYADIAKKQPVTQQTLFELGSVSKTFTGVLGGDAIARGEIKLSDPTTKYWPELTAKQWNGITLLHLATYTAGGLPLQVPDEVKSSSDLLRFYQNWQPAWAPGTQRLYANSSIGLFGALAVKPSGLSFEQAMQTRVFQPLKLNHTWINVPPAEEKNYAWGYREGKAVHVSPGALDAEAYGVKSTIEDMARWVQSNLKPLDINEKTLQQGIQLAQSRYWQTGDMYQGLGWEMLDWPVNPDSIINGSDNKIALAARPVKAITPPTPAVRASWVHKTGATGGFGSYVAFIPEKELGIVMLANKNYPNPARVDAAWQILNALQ
# Assay: qHTS Inhibitors of AmpC Beta-Lactamase (assay without detergent); note: nearly all actives have a fitted effect of over 20% in size
# Settings: AmpC nitrocefin hydrolysis, absorbance 480 nm, 0.0001% Triton; series mostly up to 57.1 µM
# Summary of the method: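 20 mM phosphate pH 7.0 + 0.01% (detergent screen) or 0.0001% Triton X-100; 5.3 nM AmpC reagent; cpd preinc 15 min RT; nitrocefin (800 uM stock) to start; A480 q20 s × 4 min; Activity was normalised to no-enzyme and no-compound control wells.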
# Potency is the fitted concentration of half-maximal effect; tags give direction and shape of the fitted curve.
row,Compound,Potency
1,O=C1N/C(=C\c2ccc(O)cc2)C(O)=C1C=NCc1ccccc1,"inconclusive: 28.2 µM [inhibitor, single point]"
2,N#C/C(=C/c1ccc(OCc2ccccc2)cc1)C(=O)NC1CCCCC1,"inconclusive: 0.141 µM [inhibitor, full curve, poor fit]"
3,O=C(CN1CCC(n2nnc3ccccc32)CC1)Nc1ccc2c(c1)CCC2,"inconclusive: 0.141 µM [inhibitor, full curve, poor fit]"
4,Cc1ccccc1Nc1c(N)c(=O)oc2ccccc12,active: 0.316 µM
5,CCOC(=O)C1CCCN(c2c(NCCN3CCCCC3C)c(=O)c2=O)C1 (stereo not given),active: 3.55 µM
6,O=C(Nc1cccc(S(=O)(=O)NC2=NCCCCC2)c1)c1cc(-c2ccc(Cl)cc2)nc2ccccc12,"inconclusive: 3.98 µM [inhibitor, single point]"
7,CCCc1cc(-c2n[nH]c(=S)n2CC)c2ccccc2n1,"inconclusive: 31.6 µM [inhibitor, partial curve]"
8,NS(=O)(=O)c1cccc(NS(=O)(=O)c2ccc(/C=C/C(=O)OCC(=O)c3ccc(Br)cc3)cc2)c1,"inconclusive: 2.51 µM [inhibitor, full curve, poor fit]"
9,COc1cccc(C2C(C(=O)/C=C/c3ccco3)=C(O)C(=O)N2CCN2CCOCC2)c1 (stereo not given),inactive
10,Cc1ccn2c(CN3CCOCC3)c(-c3ccccc3)nc2c1,"inconclusive: 6.31 µM [inhibitor, single point]"
11,C/C(=N\NC(=O)c1ccc(NS(=O)(=O)c2cccs2)cc1)c1ccc2c(c1)OCO2,active: 17.8 µM
12,O=C(Oc1cccc(/C=N/Nc2nc(Nc3ccccc3)nc(N3CCOCC3)n2)c1)c1ccco1,"inconclusive: 3.98 µM [inhibitor, partial curve]"
13,CCCCOc1cccc(C2C(C(=O)c3ccc(C)o3)=C(O)C(=O)N2Cc2ccco2)c1 (stereo not given),inactive
14,COc1ccc(S(=O)(=O)N(C)CC(=O)Nc2ccc3c(c2)OCCO3)cc1,"inconclusive: 35.5 µM [inhibitor, single point]"
15,N#Cc1ccccc1CSc1ccccn1,"inconclusive: 6.31 µM [inhibitor, single point]"
16,CCCCn1ccc(O)c(Cc2ccc(F)cc2)c1=O,"inconclusive: 3.98 µM [inhibitor, single point]"
17,CC(=O)NS(=O)(=O)c1ccc(N=c2ssc3c2-c2cc(C)ccc2NC3(C)C)cc1,"inconclusive: 25.1 µM [inhibitor, single point]"
18,O=C(/C=C/c1cccs1)c1ccc(NC(=O)c2cccc(Br)c2)cc1,"inconclusive: 0.141 µM [inhibitor, full curve, poor fit]"
19,Cn1ncc2c1ncn1nc(COc3ccc4ccccc4c3)nc21,inactive
20,COc1ccc(-c2nc3ccc([N+](=O)[O-])cc3[nH]2)cc1,inactive
21,O=C(CN(c1ccc(Cl)cc1)S(=O)(=O)c1ccc(Cl)c([N+](=O)[O-])c1)NCCc1ccc(F)cc1,active: 31.6 µM
22,Fc1cccc(-c2cc3nc4c(c(N5CCC6(CC5)OCCO6)n3n2)CCCC4)c1,inactive
23,CN(CC(=O)Nc1ccc(F)cc1)C(=O)c1cc2c(s1)CCCCC2,"inconclusive: 28.2 µM [inhibitor, single point]"

row,Compound,Potency
1,COc1cccc(C(=O)N/N=C(\C)c2cccc(NC(=O)c3ccc(F)cc3)c2)c1OC,"inconclusive: 28.2 µM [inhibitor, single point]"
2,O=C(Cn1cc2c(n1)CCCC2)Nc1cc(-c2cccc(Cl)c2)no1,"inconclusive: 3.55 µM [inhibitor, full curve, poor fit]"
3,CC(C)NC(=S)Nc1ccc2nc3n(c(=O)c2c1)CCCCC3,inactive
4,Cc1ccc(-c2nc(C#N)c(NCc3cccc4c3OCO4)o2)cc1,active: 0.316 µM
5,CCOc1cc(/C=C2\SC(=O)N(c3ccc(O)cc3)C2=O)ccc1O,active: 10 µM
6,O=C(CN(Cc1ccccc1)C(=O)c1csnn1)NCc1ccc2c(c1)OCO2,inactive
7,C=CCOc1ccc(/C=C/C(=O)OCC(=O)NCc2cccs2)cc1,"inconclusive: 35.5 µM [inhibitor, single point]"
8,O=C1OCC(c2ccc(Cl)s2)=C1c1ccccc1[N+](=O)[O-],"inconclusive: 35.5 µM [inhibitor, single point]"
9,Cc1ccc(CNC(=S)Nc2ccc(NS(=O)(=O)c3ccc(C)cc3)cc2)cc1,active: 2.24 µM
10,COc1ccc(C2CC(c3cccc(Cl)c3)n3nc(N)nc3N2)cc1 (stereo not given),active: 0.891 µM
11,CCCCSc1c(C)c2cc3c(cc2[nH]c1=O)OCO3,"inconclusive: 0.631 µM [inhibitor, partial curve, poor fit]"
12,COc1ccc(C(CNC(=O)c2ccc(S(=O)(=O)N3CCCC3)cc2)N2CCOCC2)cc1 (stereo not given),inactive
13,Cn1cnnc1SCC(=O)N1CCC(Cc2ccccc2)CC1,inactive
14,Cc1cc(C(=O)CN2c3cccc4cccc(c34)S2(=O)=O)c(C)n1C,"inconclusive: 10 µM [inhibitor, partial curve]"
15,COc1cc2c3nnc(-c4ccccc4)c-3cn(Cc3ccccc3F)c2cc1OC,inactive
16,O=C(NNC(=O)c1sccc1-n1cccc1)c1ccccc1,"inconclusive: 1.26 µM [inhibitor, full curve, poor fit]"
17,COC(=O)C1(C(=O)OC)NOC2C(=O)N(c3ccc(Cl)cc3Cl)C(=O)C21 (stereo not given),active: 4.47 µM
18,Cc1ccc(CNC(=O)c2ccc(N3CCC4(CC3)CC(c3cccc(Br)c3)=NO4)c(NC(=O)c3ccc(Cl)c([N+](=O)[O-])c3)c2)cc1,"inconclusive: 2.82 µM [inhibitor, full curve, poor fit]"
19,COc1ccc(/C=C2/C(=O)N(c3nc4ccccc4s3)N=C2CSc2ccc(Cl)cc2)cc1,active: 15.8 µM
20,CCn1c(C)c(C2=CCN(S(=O)(=O)c3ccccc3)CC2)c2ccccc21,active: 17.8 µM
21,Cc1cc(NC(=O)c2ccccc2)n(-c2ccccc2)n1,inactive
22,O=C(CCN=C1NS(=O)(=O)c2ccccc21)OCC(=O)c1ccccc1Cl,active: 39.8 µM
